# Experimental data taken from PubChem BioAssay AID1508623 (National Center for Advancing Translational Sciences (NCATS), 2021).
# Among all 48,000 compounds or so, about 450 (0.94%) were called active. Another 19% or so got no clear call; they are omitted. Calls come from the whole dose curve; as a rule, active = well fitted inhibition curve with a large enough effect; inconclusive = small, poorly fitted or top-dose-only effect; inactive = no such curve, though single readings can be large or run the other way. The list shows a part of the results.
# Test: Primary qHTS for Identification of Small Molecule Inhibitors of Huntingtin Promoter Activity; note: nearly all actives have a fitted effect of over 50% in size
# Conditions: HEK293 HTT promoter firefly luciferase reporter (activity 0% = vehicle and -100% = no light), 24 h; series mostly up to 57.5 µM; activity change, negative = inhibition: at the top concentration
# Summary of the method: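 Firefly luciferase signal from promoter-reporter HEK293 cells was scaled between vehicle (0%) and zero RLU (-100%). Compounds were tested at final concentrations of up to 57.5 uM over 24 h at 37 degrees C. PTC124 at 50 uM final served as control inhibitor.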
# Potency is the fitted concentration of half-maximal effect.
SMILES,"activity change, negative = inhibition",Potency
Cc1cccc(CSc2cn(CC(=O)N3CCOCC3)c3ccccc23)c1,inactive: 64.2%,–
COc1ccc(C(=O)c2ccccc2O)c(O)c1,inactive: 18.9%,–
CCN(C(=O)CN1C(=O)c2ccccc2Sc2ccc(C(=O)OC)cc21)c1cccc(C)c1,inactive: 1.99%,–
CCC(=O)N1CCc2cc(S(=O)(=O)NC(Cc3ccccc3)C(=O)NCc3ccccc3)ccc21 (stereo unspecified),inactive: -20.9%,–
Cc1ccc(OCC(=O)Nc2ccc(OCc3cc(=O)n4ccsc4n3)cc2)cc1C,inactive: 27.4%,–
CCCCNc1nc2c(S(=O)(=O)c3ccc(Br)cc3)nnn2c2ccsc12,inactive: 2.29%,–
Cc1ccc(NC(=O)Cn2c(=O)n(Cc3nc(-c4ccccc4)no3)c(=O)c3ccccc32)c(C)c1,inactive: -11.7%,–
Cc1ccc(Nc2c(-c3ccccn3)nc3ccc(Br)cn23)cc1,inactive: -10.4%,–
Cc1ccc(C(=O)N(Cc2ccc(N(C)C)cc2)CC2CCCO2)cc1 (stereo unspecified),inactive: -0.897%,–
Cc1nn(C(C)C(=O)NCc2ccc(OC(C)C)cc2)c(=O)c2c1sc1ccccc12 (stereo unspecified),inactive: -35.3%,–
Cc1ccc2ccc3cc(C(=O)N4CCN(c5ccccc5F)CC4)nc3c2[nH]1,inactive: -26.6%,–
CC(C)(C)NCC(O)COc1cccc2c1C[C@H](O)[C@H](O)C2 (stereo partly specified),inactive: 10.8%,–
CCCCNC(=O)CCC(=O)NNc1nc2ccccc2c2nc(C)nn12,inactive: -4.89%,–
COc1ccccc1NC(=O)c1c(-c2ccc(C)cc2)nnc2ccccc12,inactive: 10.1%,–
COc1ccc(N2CCN(C(=O)Nc3cn(CC(C)C)c(=O)c4ccccc34)CC2)cc1,inactive: 1.99%,–
O=C(Nc1cc(Cl)ccc1Cl)c1ccc2c(c1)N(Cc1cccc(Cl)c1)C(=O)c1ccccc1S2=O (stereo unspecified),inactive: -18.7%,–
O=C(NCc1cccs1)c1ccc2c(c1)sc1nc(-c3ccc(F)cc3)cn12,inactive: -9.36%,–
Cc1nn(-c2ccccc2)c(OC(=O)c2ccccc2)c1S(=O)(=O)c1ccccc1,inactive: -8.46%,–
Cc1ccc2oc(C(=O)Nc3c(C(=O)Nc4cccc(Cl)c4)oc4ccccc34)cc(=O)c2c1,inactive: -10.5% [at 11.5 µM],–
Cc1ccccc1Cn1ccn(-c2ccc(F)c(F)c2)c(=O)c1=O,inactive: -3.22%,–
CCOC(=O)CSc1nc2ccccc2c(=O)n1-c1ccc(C(=O)NCCOC)cc1,inactive: 6.77%,–
O=C(Nc1ccccc1C(F)(F)F)N1CCOc2ccc(Cl)cc21,inactive: -8.52%,–
Cc1ccc(N2C(=O)CS(=O)(=O)C23C(=O)Nc2ccccc23)cc1C (stereo unspecified),inactive: -10.2%,–
CCOC(=O)N1CCC(NC(=O)c2ccc3c(c2)N(Cc2ccccc2C)C(=O)c2ccccc2S3=O)CC1 (stereo unspecified),inactive: -21.1%,–

SMILES,"activity change, negative = inhibition",Potency
CN(Cc1nc(-c2ccc(Cl)cc2)no1)S(=O)(=O)c1ccccc1,inactive: -1.61%,–
COc1ccccc1N1CCN(C(=O)c2cc3c(=O)n(Cc4cccs4)ccc3nc2C)CC1,inactive: -28.8%,–
CCOC(=O)N1CCc2c(sc3c2c(=O)n(-c2ccc(CC)cc2)c(=O)n3Cc2ccc(F)cc2Cl)C1,inactive: -15.3%,–
Cc1ccc(-n2ncc3c(NCCCn4ccnc4)ncnc32)cc1C,inactive: 12.8%,–
CCOc1ccc2nc(N3CCCC(C(=O)NCCc4ccc(Cl)cc4)C3)sc2c1 (stereo unspecified),inactive: -14.7%,–
Nc1nc2[nH]cc(CCc3ccc(C(=O)N[C@@H](CCC(=O)O)C(=O)O)cc3)c2c(=O)[nH]1,inactive: -14.2%,–
CC(C)C(=O)Nc1nnc(S(=O)(=O)N2CCc3ccccc32)s1,inactive: -20%,–
Cc1cccc(N2CCN(c3ccc4cc(S(=O)(=O)N5CCC(C)CC5)ccc4n3)CC2)c1C,inactive: 2.57%,–
CCOc1ccc(NC(=O)Cn2nc(Cc3cccnc3)c3ccccc3c2=O)cc1,inactive: 5.63%,–
CCOC(=O)c1c(C)oc2ncnc(Nc3cccc(C(F)(F)F)c3)c12,inactive: -12.9%,–
CCc1ccc(NC(=O)CC(NCc2cccnc2)C(=O)O)cc1 (stereo unspecified),inactive: -16%,–
O=c1oc2ccccc2cc1-c1cn2cc(Cc3ccc(F)cc3)sc2n1,inactive: -0.104%,–
Cc1ccc(OCC(=O)Nc2ccc(OCc3cc(=O)n4c(C)csc4n3)cc2)cc1C,inactive: 7.48%,–
Cc1ccc(Cn2ccnc2SCC(=O)NCc2ccccc2)cc1,inactive: -18%,–
CSc1ccc(CCNC(=O)Cn2nc(C)n3c(cc4sccc43)c2=O)cc1,inactive: 6.58%,–
Cc1nc(-c2ccc(Cl)cc2)sc1CCNC(=O)C(=O)Nc1ccc2c(c1)OCO2,inactive: -21.7%,–
CCOC(=O)c1cccc(NC(=O)Cn2ncc3c(=O)oc4ccccc4c32)c1,inactive: 3.25%,–
Cn1c(=O)c2c(nc(SCC(=O)Nc3ccccc3F)n2Cc2ccccc2F)n(C)c1=O,inactive: 8.54%,–
Cc1ccc(C(=O)c2oc3ccccc3c2NC(=O)COc2ccc(Cl)c(C)c2)cc1,inactive: 2.07%,–
COc1cc(C2CC(=O)Nc3cc4c(cc32)OCO4)cc(OC)c1O (stereo unspecified),inactive: -9.09%,–
COCCc1ccc(OCC(O)CNC(C)C)cc1 (stereo unspecified),inactive: 11.9%,–
CCc1cccc(CC)c1NC(=O)CN(C)S(=O)(=O)c1ccc2c(c1)n(C)c(=O)c(=O)n2C,inactive: -18.7%,–
COc1cccc(CNC(=O)C2CCCN(c3nnc(-n4c(C)ccc4C)s3)C2)c1OC (stereo unspecified),inactive: -20%,–
O=C(Nc1ccc(OC(F)(F)F)cc1)c1cc(-c2ccc(Cl)cc2)on1,inactive: -1.33%,–

SMILES,"activity change, negative = inhibition",Potency
Cc1ccc2nc(COc3ccccc3NC(=O)Nc3ccc(F)c(Cl)c3)cc(=O)n2c1,inactive: 13%,–
CCSc1nc(-c2ccc(OC)cc2)nc2c1Cc1c(CO)cnc(C)c1O2,inactive: -11.4%,–
Cc1cccc(NC(=O)CSc2cn(CC(=O)N3CCOCC3)c3ccccc23)c1C,inactive: 2.99%,–
Cc1ccc(-n2c3nc(=O)n(C)c(=O)c-3cc3ccccc32)c(C)c1,inactive: -17.3%,–
CCC(=O)N1CCc2cc(Br)cc(S(=O)(=O)N3CCCC(C(=O)NCc4ccc(C)cc4)C3)c21 (stereo unspecified),inactive: -9.29%,–
COc1cccc2cc(-c3nc4sc5c(c4c(=O)[nH]3)CCC(C(C)(C)C)C5)c(=O)oc12 (stereo unspecified),inactive: 2.55%,–
COc1ccc(/C=C/c2nc(C#N)c(N3CCCCC3)o2)cc1OC,inactive: -18.1%,–
CCc1ccc(NC(=O)Cn2ncn3c(cc4ccccc43)c2=O)cc1,inactive: -0.944%,–
Cc1cc2c(cc1S(=O)(=O)NCc1ccc(F)cc1)OCCN2C,inactive: -2.43%,–
CCCCN(Cc1cc2cc(C)ccc2[nH]c1=O)C(=O)c1cccc(Cl)c1,inactive: -20.8%,–
Cc1ccc(-n2ncc(C(=O)NCc3ccco3)c2C2CCN(C(=O)OC(C)(C)C)CC2)cc1,inactive: -18.1%,–
CNC(=O)C1CCC(Cn2c(=O)c3sccc3n(CC(=O)N3CCC(C)CC3)c2=O)CC1 (stereo unspecified),inactive: -7.63%,–
Cc1ccc2nc(Cl)c3cc(C(=O)N4CCCCC4)sc3c2c1,inactive: 5.47%,–
COC(=O)c1cc(S(=O)(=O)NCC2CCN(Cc3cccc(F)c3)CC2)cn1C,inactive: -24.6%,–
Cn1c(=O)c2c(-c3ccc(Cl)cc3)n(CCc3ccccc3)cc2n(C)c1=O,inactive: -6.77%,–
Cc1cc(C)c(Cn2c(=O)n(CCCC(=O)NCc3ccc4c(c3)OCO4)c(=O)c3sccc32)c(C)c1,inactive: -6.43%,–
OCc1ccccn1,inactive: -10.1%,–
CN(C(=O)c1c(O)c2ccccc2n(C)c1=O)c1ccccc1,inactive: -5.47%,–
COc1ccc(N(C(=O)Cn2nnc3ccccc32)C(C(=O)NCc2ccccc2)c2ccc(F)cc2)cc1 (stereo unspecified),inactive: -12.1%,–
Cn1nnc2c(NCc3c(F)cccc3F)ncnc21,inactive: -13.3%,–
COc1ccc(N2CCN(Cc3nc4c(c(=O)[nH]c(=O)n4C)n3Cc3ccccc3F)CC2)cc1,inactive: -4.07%,–
COc1ccc(CCNC(=O)c2cc(=O)c3cc(C)c(C)cc3o2)cc1OC,inactive: -23.1%,–
Cn1c(=O)c2c(nc(SCC(=O)Nc3ccc(F)c(F)c3)n2Cc2ccccc2F)n(C)c1=O,inactive: -11.5%,–
O=C(NCCc1ccc(Cl)cc1)C1CCN(S(=O)(=O)c2ccc3[nH]ccc3c2)CC1,inactive: -28.4%,–

SMILES,"activity change, negative = inhibition",Potency
COc1ccc(-c2noc(CNC(=O)COc3cccc(C)c3C)n2)cc1,inactive: -2.86%,–
O=C(COCc1cc(-c2ccc3c(c2)OCO3)on1)Nc1cc(Cl)ccc1O,inactive: -4.13%,–
CCOC(=O)c1c(C)oc2nc(C)nc(NCCCN3CCN(c4cc(C)ccc4C)CC3)c12,inactive: 9.25%,–
CC(C)c1ccc(Nc2c(-c3ccccn3)nc3ccccn23)cc1,–,active: 25.1 µM
CC(NC(=O)c1ccc2c(c1)sc1nc(-c3ccc(F)cc3)cn12)C12CC3CC(CC(C3)C1)C2 (stereo unspecified),inactive: 7.03%,–
COc1cc(OC)c(NC(=O)CCc2c(C)nc3c4c(C)cc(C)nc4nn3c2C)cc1Cl,inactive: -0.907%,–
COc1cccc(/C=C/c2nc(C#N)c(N3CCN(C)CC3)o2)c1,inactive: -4.11%,–
N#Cc1cc2c(=O)n3ccccc3nc2n(-c2nnc(SCc3ccccc3Cl)s2)c1=O,inactive: -10.7%,–
CCN(CCCNC(=O)Cn1ncc2c([nH]c3ccc(C)cc32)c1=O)c1ccccc1,inactive: -1.68%,–
CCC(Sc1nc2n[nH]c(C)c2c(=N)n1-c1ccccc1Cl)C(=O)N(CC)CC (stereo unspecified),inactive: -9.83%,–
Cc1cccc(NC(=O)c2cc3c(=O)n(Cc4cccnc4)ccc3nc2C)c1,inactive: -4.83%,–
CC1Cn2c(C(=O)NCc3ccccc3Cl)cc3cccc(c32)S1 (stereo unspecified),inactive: -19.6%,–
Cc1ccc(S(=O)(=O)NCCc2nnc3ccc(SCC(=O)Nc4ccc(F)cc4F)nn23)cc1,inactive: 1.04%,–
CCOC(=O)Cn1c(=O)n(CC2CCCO2)c2nc(-c3cc(OC)ccc3OC)nc(C(N)=O)c21 (stereo unspecified),inactive: -13.8%,–
O=C(NCC(c1cccs1)S(=O)(=O)c1cccs1)c1c(F)cccc1F (stereo unspecified),inactive: -15.8%,–
CC(C)c1nn2c(=O)cc(COC(=O)c3ccc(NC(=O)c4cccs4)cc3)nc2s1,inactive: -9.84%,–
COc1ccc(OC(=O)c2nc(SCc3ccccc3C)ncc2Cl)cc1,inactive: 5.69%,–
Cc1ccccc1OCC(=O)Nc1ccccc1OCc1cc(=O)n2ccccc2n1,inactive: 0.464%,–
COc1ccnc(CS(=O)c2nc3ccc(OC(F)F)cc3[nH]2)c1OC (stereo unspecified),inactive,–
COc1cccc(CSc2nc3n(n2)C(CC(C)C)C(C(=O)Nc2ccccc2C)=C(C)N3)c1 (stereo unspecified),inactive: -13.6%,–
COc1ccc(C(=O)Nc2cccc(C(=O)OCc3cc(=O)n4c5c(sc4n3)CCCC5)c2)cc1,inactive: -18.5%,–
Cc1ccc(CCNC(=O)CCCc2nnc3n(C)c(=O)c4sccc4n23)cc1,inactive: -3.02%,–
Cc1cc(C)c2c(CC(=O)Nc3cc(C(F)(F)F)ccc3Cl)coc2c1,inactive: -18.5%,–
COc1ccccc1-n1c(=O)n(C)c2c(C(N)=O)nc(-c3cccc(OC)c3OC)nc21,inactive: -16.2%,–
